# Values joined by “and” are separate entries in the source; they are usually repeats but may differ in a detail not shown here. Equal entries are not always repeated. In all, about 2,900 compounds were measured (“NF-kB SEAP reporter activity, fold change vs agonist alone”: median about 0.99, highest 2% from about 2.6 on). The list shows a part of the results.
# Legend:
# [1] = test system: RAW-Dual; experiment: NF-kB SEAP reporter activity, fold change vs agonist alone; cytotoxicity flag (confluency mask): cytotoxic (confluency <70% of control); higher = enhanced NF-kB activity
# How it was run: (§1)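 RAW-Dual macrophages (50,000 cells/well in DMEM, 384-well plates) received 50 nL of library stock by pin tool, then a PRR agonist 1 h later, and were kept at 37 °C, 5% CO2. After 20 hours, supernatant was read for IRF by QuantiLuc luminescence and for NF-κB by QuantiBlue absorbance at 620 nm. Reporter activity is fold change over agonist-alone wells. Cytotoxic wells had IncuCyte confluency below 70% of agonist controls in both mask sets.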
# [2] = test system: RAW-Dual; experiment: NF-kB SEAP reporter activity, fold change vs agonist alone; higher = enhanced NF-kB activity
# How it was run: as §1
# [3] = test system: RAW-Dual; experiment: NF-kB SEAP reporter activity, fold change vs agonist alone; cytotoxicity flag (confluency mask): not cytotoxic; higher = enhanced NF-kB activity
# How it was run: as §1
# [4] = agonist: ODN 1826 (TLR9) 0.5 ug/mL
# [5] = agonist: Pam2CSK4 (TLR2/6) 0.1 ug/mL
# [6] = agonist: Pam3CSK4 (TLR2/1) 0.1 ug/mL
# [7] = library stock concentration (final ~1000-fold dilution): 10 mM, cytotoxicity flag (confluency mask): cytotoxic (confluency <70% of control), agonist: Imiquimod (TLR7) […]
# [8] = library stock concentration (final ~1000-fold dilution): 10 mM, cytotoxicity flag (confluency mask): cytotoxic (confluency <70% of control), agonist: MPLA (TLR4) […]
# [9] = library stock concentration (final ~1000-fold dilution): 10 mM, cytotoxicity flag (confluency mask): not cytotoxic, agonist: Imiquimod (TLR7) […]
# [10] = library stock concentration (final ~1000-fold dilution): 10 mM, cytotoxicity flag (confluency mask): not cytotoxic, agonist: MPLA (TLR4) […]
smiles,measurement,setting,value
Cc1ccc(F)c(NC(=O)Nc2ccc(-c3cccc4[nH]nc(N)c34)cc2)c1 (library stock concentration (final ~1000-fold dilution): 10 mM),NF-kB SEAP reporter activity,[1]; agonist: LPS (TLR4) 0.1 ug/mL,1.06
same,NF-kB SEAP reporter activity,[1]; [4],1.29
same,NF-kB SEAP reporter activity,[1]; [5],0.316
same,NF-kB SEAP reporter activity,[1]; [6],0.74
Cc1ccc(F)c(NC(=O)Nc2ccc(-c3cccc4[nH]nc(N)c34)cc2)c1,NF-kB SEAP reporter activity,[2]; [7],1.91
same,NF-kB SEAP reporter activity,[2]; [8],1.72
Cc1csc(-c2nc[nH]c2-c2ccc3ncsc3c2)n1.Cl,NF-kB SEAP reporter activity,[2]; [9],0.927
same,NF-kB SEAP reporter activity,[2]; [10],1.34
Cc1csc(-c2nc[nH]c2-c2ccc3ncsc3c2)n1.Cl (library stock concentration (final ~1000-fold dilution): 10 mM),NF-kB SEAP reporter activity,[3]; agonist: LPS (TLR4) 0.1 ug/mL,2.26
same,NF-kB SEAP reporter activity,[3]; [4],1.18
same,NF-kB SEAP reporter activity,[3]; [5],1.24
same,NF-kB SEAP reporter activity,[3]; [6],1.47
CC(=O)c1cc2c(o1)C(=O)c1ccccc1C2=O (library stock concentration (final ~1000-fold dilution): 10 mM),NF-kB SEAP reporter activity,[1]; agonist: LPS (TLR4) 0.1 ug/mL,0.283
same,NF-kB SEAP reporter activity,[1]; [4],1.77
same,NF-kB SEAP reporter activity,[1]; [5],0.0769
same,NF-kB SEAP reporter activity,[1]; [6],0.132
CC(=O)c1cc2c(o1)C(=O)c1ccccc1C2=O,NF-kB SEAP reporter activity,[2]; [7],1.37
same,NF-kB SEAP reporter activity,[2]; [8],0.668
CCN(CC)CC(=O)Nc1c(C)cccc1C (library stock concentration (final ~1000-fold dilution): 10 mM),NF-kB SEAP reporter activity,[3]; agonist: LPS (TLR4) 0.1 ug/mL,1.1 and 0.995
same,NF-kB SEAP reporter activity,[3]; [4],1.13 and 1.09
same,NF-kB SEAP reporter activity,[3]; [5],1.12 and 1.14
same,NF-kB SEAP reporter activity,[3]; [6],1.02 and 1.09
CN(c1ccccc1CNc1nc(Nc2ccc3c(c2)CC(=O)N3)ncc1C(F)(F)F)S(C)(=O)=O,NF-kB SEAP reporter activity,[2]; [7],0.15
same,NF-kB SEAP reporter activity,[2]; [8],0.261
CN(c1ccccc1CNc1nc(Nc2ccc3c(c2)CC(=O)N3)ncc1C(F)(F)F)S(C)(=O)=O (library stock concentration (final ~1000-fold dilution): 10 mM),NF-kB SEAP reporter activity,[1]; agonist: LPS (TLR4) 0.1 ug/mL,0.321
same,NF-kB SEAP reporter activity,[1]; [4],0.221
same,NF-kB SEAP reporter activity,[1]; [5],0.0676
same,NF-kB SEAP reporter activity,[1]; [6],0.137
S=C(S)N1CCCC1,NF-kB SEAP reporter activity,[2]; [7],1.33
same,NF-kB SEAP reporter activity,[2]; [8],2.13
S=C(S)N1CCCC1 (library stock concentration (final ~1000-fold dilution): 10 mM),NF-kB SEAP reporter activity,[1]; agonist: LPS (TLR4) 0.1 ug/mL,1.39
same,NF-kB SEAP reporter activity,[1]; [4],1.63
same,NF-kB SEAP reporter activity,[1]; [5],1.15
same,NF-kB SEAP reporter activity,[1]; [6],1.5
COc1cc(N2CCN(C)CC2)ccc1Nc1ncc2c(n1)N(C)c1ccccc1C(=O)N2,NF-kB SEAP reporter activity,[2]; [9],0.928
same,NF-kB SEAP reporter activity,[2]; [10],1.03
COc1cc(N2CCN(C)CC2)ccc1Nc1ncc2c(n1)N(C)c1ccccc1C(=O)N2 (library stock concentration (final ~1000-fold dilution): 10 mM),NF-kB SEAP reporter activity,[3]; agonist: LPS (TLR4) 0.1 ug/mL,0.966
same,NF-kB SEAP reporter activity,[3]; [4],0.514
same,NF-kB SEAP reporter activity,[3]; [5],1.08
same,NF-kB SEAP reporter activity,[3]; [6],1.61
C[N+]1(C)CCC[C@H]1C(=O)O (library stock concentration (final ~1000-fold dilution): 10 mM),NF-kB SEAP reporter activity,[3]; agonist: LPS (TLR4) 0.1 ug/mL,1.08
same,NF-kB SEAP reporter activity,[3]; [4],1.08
same,NF-kB SEAP reporter activity,[3]; [5],1.16
same,NF-kB SEAP reporter activity,[3]; [6],1.08
C[N+]1(C)CCC[C@H]1C(=O)O,NF-kB SEAP reporter activity,[2]; [9],0.952
same,NF-kB SEAP reporter activity,[2]; [10],0.985
O=c1oc2c(O)c(O)cc3c(=O)oc4c(O)c(O)cc1c4c23 (library stock concentration (final ~1000-fold dilution): 2 mM),NF-kB SEAP reporter activity,[3]; agonist: LPS (TLR4) 0.1 ug/mL,1.36
same,NF-kB SEAP reporter activity,[3]; [4],1.05
same,NF-kB SEAP reporter activity,[3]; [5],1.03
same,NF-kB SEAP reporter activity,[3]; [6],0.9
O=c1oc2c(O)c(O)cc3c(=O)oc4c(O)c(O)cc1c4c23,NF-kB SEAP reporter activity,"[2]; library stock concentration (final ~1000-fold dilution): 2 mM, cytotoxicity flag (confluency mask): not cytotoxic, agonist: Imiquimod (TLR7) […]",0.988
same,NF-kB SEAP reporter activity,"[2]; library stock concentration (final ~1000-fold dilution): 2 mM, cytotoxicity flag (confluency mask): not cytotoxic, agonist: MPLA (TLR4) […]",1.05
CONC(=O)Nc1ccc(-c2sc3c(c2CN(C)C)c(=O)n(-c2ccc(OC)nn2)c(=O)n3Cc2c(F)cccc2F)cc1 (library stock concentration (final ~1000-fold dilution): 10 mM),NF-kB SEAP reporter activity,[1]; agonist: LPS (TLR4) 0.1 ug/mL,3.39
same,NF-kB SEAP reporter activity,[1]; [4],0.26
same,NF-kB SEAP reporter activity,[1]; [5],1.01
same,NF-kB SEAP reporter activity,[1]; [6],1.88
CONC(=O)Nc1ccc(-c2sc3c(c2CN(C)C)c(=O)n(-c2ccc(OC)nn2)c(=O)n3Cc2c(F)cccc2F)cc1,NF-kB SEAP reporter activity,[2]; [7],2.02
same,NF-kB SEAP reporter activity,[2]; [8],2.5
N=C(N)c1ccc(OCCCCCOc2ccc(C(=N)N)cc2)cc1.O=S(=O)(O)CCO.O=S(=O)(O)CCO (library stock concentration (final ~1000-fold dilution): 10 mM),NF-kB SEAP reporter activity,[3]; agonist: LPS (TLR4) 0.1 ug/mL,3.88
same,NF-kB SEAP reporter activity,[3]; [4],1.22
same,NF-kB SEAP reporter activity,[3]; [5],0.758
same,NF-kB SEAP reporter activity,[3]; [6],1.06
N=C(N)c1ccc(OCCCCCOc2ccc(C(=N)N)cc2)cc1.O=S(=O)(O)CCO.O=S(=O)(O)CCO,NF-kB SEAP reporter activity,[2]; [9],1.39
same,NF-kB SEAP reporter activity,[2]; [10],1.89
O=C(O)CC(C(=O)O)N1C(=O)/C(=C2/C(=O)Nc3ccc(Br)cc32)SC1=S (stereo not drawn) (library stock concentration (final ~1000-fold dilution): 10 mM),NF-kB SEAP reporter activity,[3]; agonist: LPS (TLR4) 0.1 ug/mL,0.98
same,NF-kB SEAP reporter activity,[3]; [4],1.56
same,NF-kB SEAP reporter activity,[3]; [5],1.02
same,NF-kB SEAP reporter activity,[3]; [6],1.06
O=C(O)CC(C(=O)O)N1C(=O)/C(=C2/C(=O)Nc3ccc(Br)cc32)SC1=S (stereo not drawn),NF-kB SEAP reporter activity,[2]; [9],1.33
same,NF-kB SEAP reporter activity,[2]; [10],1.72
CNC(=O)c1ccccc1Nc1cc(Nc2ccc(N3CCOCC3)cc2OC)ncc1C(F)(F)F (library stock concentration (final ~1000-fold dilution): 10 mM),NF-kB SEAP reporter activity,[3]; agonist: LPS (TLR4) 0.1 ug/mL,0.259
same,NF-kB SEAP reporter activity,[3]; [4],0.552
same,NF-kB SEAP reporter activity,[3]; [5],0.324
same,NF-kB SEAP reporter activity,[3]; [6],0.207
CNC(=O)c1ccccc1Nc1cc(Nc2ccc(N3CCOCC3)cc2OC)ncc1C(F)(F)F,NF-kB SEAP reporter activity,[2]; [9],0.68
same,NF-kB SEAP reporter activity,[2]; [10],0.407
CNC(=O)c1cc(Oc2ccc(NC(=O)Nc3ccc(Cl)c(C(F)(F)F)c3)cc2)ccn1,NF-kB SEAP reporter activity,[2]; [9],0.641
same,NF-kB SEAP reporter activity,[2]; [10],1.93

# Reference: the supplement of paper PMC10037445
